We go through 83 compounds from ChEMBL document CHEMBL1201862, “PubChem BioAssay data set” (2004).

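Each compound was tested at five concentrations against cells in 96-well plates for 48 hours. GI50 marks 50% less growth.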 Activity calls are given as the source filed them. No stated cut-off is given here; in the data, active = GI50 up to about 1.1 µM and inactive = higher.

The subject of this assay is NCI-H322M. The assay is described as follows: NCI tumour cell line growth inhibition, 48 h.
Turning to `O=[N+]([O-])/C(C(Cl)=C(Cl)Cl)=C(/Sc1ccccc1)N1CCCCC1`, the GI50 is inactive: > 100 µM.
For the compound `Cc1ccc(S(=O)(=O)Oc2cc(N)c3c(n2)CCC3)cc1`, the GI50 was inactive: > 100 µM.
Consider `CC1(C)C2CCC1(CS(=O)(=O)Nc1ccccc1)C(=O)C2` (stereo not drawn), for which the GI50 is inactive: > 100 µM.
Take `CN(C)CCCN=C(N)N`: the GI50 is inactive: > 100 µM.
As for `O=C(NNc1ccccc1)c1ccc(Cl)c(Cl)c1`, the GI50 was inactive: 12.1 µM.
On to `COc1ccc2nccc(/C=C/c3ccc(N(C)C)cc3)c2c1`, for which the GI50 is inactive: > 10 µM.
On to `C=C1C(C2(C)C=CC(=O)OC3(C)COC(=O)CC32)C(OC=O)C(OC(=O)C(O)C(C)CC)C2(C)C(c3ccoc3)CC(OC(C)=O)C12O` (stereo not drawn), for which the GI50 is inactive: > 100 µM.
Take `N#Cc1c(-c2ccc(Cl)c(Cl)c2)c(-c2ccc(Cl)c(Cl)c2)nn(CC(=O)O)c1=O`: the GI50 was inactive: > 100 µM.
The value for `C=CCN1C(=O)C/C(=C2/CCC(=O)N2CC=C)C1=O` was inactive: > 100 µM.
The value for `N=C(N)NS(=O)(=O)c1ccc(NC(=O)c2cccc3c(NNc4ccc(C(=O)O)cc4)c4ccccc4nc23)cc1` was inactive: > 100 µM.
Regarding `Clc1cc(Cc2cc(Cl)c(Cl)c3c2OCOC3)c2c(c1Cl)COCO2`, the GI50 is inactive: 87.7 µM.
Take `COC(=O)CN1SC2(SC13C(C)(C)C(=O)C3(C)C)C(C)(C)C(=O)C2(C)C`: the GI50 is inactive: > 100 µM.
As for `Cc1nn2c(C(=O)N/N=C/c3ccccc3O)c(C)nc2s1`, the figure is inactive: 96.6 µM; as for `CC(C)(C)OC(=O)N1N=NC2C1C1CC(OCc3ccccc3)(OCc3ccccc3)C2O1` (stereo not drawn), inactive: > 100 µM; as for `Cc1ccc(C2[C@H]3C(=O)N(c4ccc(Cc5ccc(N6C(=O)[C@@H]7ON(c8ccccc8)C(c8ccc(C)cc8)[C@@H]7C6=O)cc5)cc4)C(=O)[C@H]3ON2c2ccccc2)cc1` (stereo partly drawn), inactive: > 100 µM.
In the case of `CCc1cccc(C)c1NC(=O)NS(=O)(=O)c1ccc(C)cc1`, the GI50 was inactive: > 100 µM.
In the case of `CSc1nnc(SC)nn1`, the GI50 was inactive: > 100 µM.
Turning to `Cc1nc(SCC(=O)Nc2ccccc2)c2sc(=S)n(-c3ccccc3)c2n1`, the GI50 is inactive: > 10 µM.
On to `OC1=C2c3ccccc3NC2Oc2cc(F)ccc21` (stereo not drawn), for which the GI50 is inactive: 19 µM.
Regarding `CCN(CC)CCCNC(=O)c1cc(-c2nccn2C)nc2ccccc12`, the GI50 was inactive: > 100 µM.
On to `Nc1ccc(Nc2c3ccccc3nc3ccccc23)cc1`, for which the GI50 was inactive: 6.5 µM.
The value for `Cc1ccc(S(=O)(=O)Nn2c(S)c(C#N)c(-c3ccc(Cl)cc3)c(C#N)c2=O)cc1` was inactive: 59.4 µM.
As for `COC1(O)c2cccc(Cl)c2C(=O)N1C1(C(N)=O)CCCCC1` (stereo not drawn), the GI50 is inactive: > 100 µM.
As for `Nc1nc2c(C(=O)O)c3ccc([N+](=O)[O-])cc3c(=O)n2c2ccccc12`, the figure is inactive: 27.5 µM.
On to `CN(/N=C(\C(=O)O)c1ccccc1)C1=NCCN1`, for which the GI50 was inactive: > 100 µM.
Turning to `Clc1cc2n[se]nc2cc1Cl`, the GI50 was inactive: > 100 µM.
`O=C1CC(Cl)c2c1csc2Br` (stereo not drawn): the GI50 was inactive: 18.3 µM.
Take `CCN1CCN(c2ccc(Nc3ccnc4ccc5nn(C)nc5c34)cc2)CC1`: the GI50 is inactive: 12.1 µM.
Take `COc1ccc(C2CC(c3ccc(NS(=O)(=O)c4cc([N+](=O)[O-])ccc4C)cc3)=NN2S(=O)(=O)c2cc([N+](=O)[O-])ccc2C)cc1` (stereo not drawn): the GI50 is inactive: 50.2 µM.
For the compound `CC(Oc1cc2oc(=O)cc(-c3ccccc3)c2cc1Cl)C(=O)O` (stereo not drawn), the GI50 is inactive: > 100 µM.
Consider `NC(=S)NNC(=O)/C(=C/c1ccc(/C=C(\NC(=O)c2ccccc2)C(=O)NNC(N)=S)cc1)NC(=O)c1ccccc1`, for which the GI50 was inactive: > 100 µM.
`Cc1c(N=NN(C)C)cc[n+]([O-])c1C`: the GI50 is inactive: > 100 µM.
As to `O=C1CSC(c2cc3cc(Br)ccc3nc2Cl)N1c1ccc(F)c(Cl)c1` (stereo not drawn), the GI50 was inactive: > 50 µM.
`NC(CSc1nc2ccccn2c1[N+](=O)[O-])C(=O)O` (stereo not drawn): the GI50 was inactive: > 100 µM.
In the case of `O=c1oc2ccccc2cc1P(=O)(O)O`, the GI50 was inactive: > 100 µM.
For the compound `CNC(=O)C(C)Oc1ccc(OCC2CCCCC2)cc1` (stereo not drawn), the GI50 is inactive: > 100 µM.
As for `CCOC(=O)C1CC/C(=C(/C#N)C(=O)OC)N1` (stereo not drawn), the figure is inactive: > 100 µM; as for `CN(C)CCNC(=O)c1cccc2[nH]c(-c3cccnc3)nc12`, inactive: 22.6 µM.
The value for `CN1C(=O)C2CCC(=O)N2c2cccnc21` (stereo not drawn) was inactive: > 100 µM; that for `Cn1c2ccccc2c(=O)c2c(O)cc3c(c21)C=CC1(CCCCC1)O3` was inactive: > 10 µM.
For `O=C(Nc1ccc(F)cc1)c1cc2ccc(O)cc2o/c1=N\c1cccc(F)c1`, the GI50 is inactive: 26.5 µM.
Take `CC1(C)OCC(C2OC(N3O[C@H](CI)C[C@@H]3c3ccccc3)C3OC(C)(C)OC23)O1` (stereo partly drawn): the GI50 is inactive: > 100 µM.
For the compound `C/C(=N\NC(=O)c1ccc(Cl)cc1)c1nc2cccnc2[nH]1`, the GI50 is inactive: 32.6 µM.
The value for `NC1=Nc2ccccc2Sc2ccccc21` was inactive: > 100 µM.
Consider `CN(C)c1ccc(/C=C/C=C(/C#N)c2ccccc2)cc1`, for which the GI50 was inactive: 40.6 µM.
Turning to `C[C@@H]1C(=O)C[C@H]2C(C)(C)CCC[C@]2(C)[C@@]1(O)CCc1ccoc1`, the GI50 was inactive: > 100 µM.
With `O=C1N[C@@H](c2c[nH]c3cc(Br)ccc23)C(=O)N[C@H]1c1c[nH]c2cc(Br)ccc12`, the GI50 was inactive: > 100 µM.
As for `Brc1ccc(C2C3CSc4ccccc4C3=NN2c2ccccc2)cc1` (stereo not drawn), the figure is inactive: > 100 µM; as for `CC1(C)CC23C4COC(=O)C2CCC1C3CC4=O` (stereo not drawn), inactive: 25.3 µM; as for `CCOC1Oc2ccccc2-c2nc(SC)ncc21` (stereo not drawn), inactive: > 100 µM.
With `c1ccc(/N=C(/Nc2ccccc2)N2CCCCC2)cc1`, the GI50 was inactive: > 100 µM.
Regarding `Cc1ccc2c(c1)C(O)(c1ccccc1)CCS2` (stereo not drawn), the GI50 is inactive: 28.7 µM.
With `Clc1ccc(Nc2nc3ccccc3nc2-c2cccs2)cc1Cl`, the GI50 is inactive: 49.3 µM.
Take `O=C(CSc1nnc(-c2ccccn2)s1)N/N=C/c1ccccc1`: the GI50 is inactive: > 100 µM.
Turning to `NC1=NS(=O)(=O)Nc2nc(-c3ccc([N+](=O)[O-])cc3)[nH]c21`, the GI50 is inactive: > 100 µM.
The value for `COc1ccc(-c2c(C(C)=O)c(-c3ccccc3)n(C3OC(COC(C)=O)C(OC(C)=O)C(OC(C)=O)C3OC(C)=O)c(=S)c2C#N)cc1` (stereo not drawn) was inactive: > 100 µM; that for `CC12Nc3c(Cl)cc(Cl)cc3N1C(=O)c1ccccc12` (stereo not drawn) was inactive: > 100 µM.
`C[n+]1[n-]o/c(=N\N=O)c1-c1cc(-c2/c(=N/N=O)o[n-][n+]2C)cc(-c2/c(=N\N=O)o[n-][n+]2C)c1`: the GI50 was inactive: > 100 µM.
Regarding `CN1CCN(C(=S)N2CCN(C)CC2)CC1`, the GI50 was inactive: > 100 µM.
The value for `C/C=C/C/C=C/CCC(=O)C1OC1C(N)=O` (stereo not drawn) was inactive: 20.2 µM.
The value for `COc1ccc2oc(=O)c(-c3csc(-c4ccccc4)n3)cc2c1` was inactive: 67.8 µM; that for `CCOC(=O)c1sc2nc(SC)nc3c2c1NC(=O)CN3c1cccc(F)c1` was inactive: 21.2 µM; that for `COC(=O)c1ccccc1C1=C([N+](=O)[O-])C(c2ccccc2)C(C#N)=C(N)O1` (stereo not drawn) was inactive: > 100 µM.
Consider `COc1cc(C[P+](c2ccccc2)(c2ccccc2)c2ccccc2)cc(OC)c1OC`, for which the GI50 is inactive: > 100 µM.
In the case of `CC1=NN(c2nc(N)nc(/C(C#N)=C/c3cccn3-c3cc(Cl)cc(Cl)c3)n2)C(C)(C)C1`, the GI50 is inactive: > 100 µM.
For `O=C(CN1CCOCC1)Nc1ccc2c(c1)C1Oc3ccccc3CC1CO2` (stereo not drawn), the GI50 was inactive: > 100 µM.
As for `Cc1cc(C)c(S(=O)(=O)N2CCCN(S(=O)(=O)c3c(C)cc(C)cc3C)OCCCON(S(=O)(=O)c3c(C)cc(C)cc3C)CCCN(S(=O)(=O)c3c(C)cc(C)cc3C)OCCCO2)c(C)c1`, the GI50 is inactive: > 100 µM.
Turning to `O=C(O)C(Cc1cc(I)c(O)c(I)c1)C1CCCCC1` (stereo not drawn), the GI50 is inactive: 39.5 µM.
`Cc1ccc(Oc2cc(C)ccc2P(=O)(O)O)cc1`: the GI50 was inactive: > 100 µM.
`CCOc1ccc(N/C(=C(/C(Cl)=C(/Cl)N2CCCCC2)[N+](=O)[O-])n2nnc3ccccc32)cc1`: the GI50 is inactive: 17.2 µM.
As for `CN(C)C=C1C(=O)N(C)C(=O)N(C)C1=O`, the figure is inactive: > 100 µM.
Turning to `CS(=O)(=O)OCCN1CCN(C(=O)c2ccc(Cl)c3c(Nc4ccc(S(=O)(=O)N=C(N)N)cc4)c4ccccc4nc23)CC1`, the GI50 was inactive: > 100 µM.
The value for `CCOC(=O)C(=O)Nc1nc2c(s1)C(=O)c1ccccc1C2=O` was inactive: 16.6 µM; that for `O=c1oc2ccc(Cl)cc2cc1-c1cn2ccccc2n1` was inactive: > 54.1 µM.
With `CN1CCOC1c1ccccc1O` (stereo not drawn), the GI50 was inactive: > 100 µM.
For the compound `CN(NC(=O)c1ccco1)C1=NCCN1`, the GI50 is inactive: > 100 µM.
With `O=c1c2ccccc2nc2n1-c1ccccc1SC2`, the GI50 was inactive: > 100 µM.
On to `Cn1c([C@H](C#N)C(=O)c2cc(O)ccc2[N+](=O)[O-])nc2ccccc21`, for which the GI50 was inactive: > 100 µM.
As to `CC(C)=CC(=O)N(C)C1C2CN3CCC(O2)C13` (stereo not drawn), the GI50 was inactive: > 100 µM.
Turning to `CC[C@H](C)[C@H]1NC(=O)[C@@H](NC(=O)[C@@H](CC(C)C)N(C)C(=O)C2CCCN2C(=O)[C@H](C)O)[C@@H](C)OC(=O)[C@@H]2Cc3ccccc3CN2C(=O)[C@@H]2CCCN2C(=O)[C@H](CC(C)C)NC(=O)[C@@H](C)C(=O)[C@H](C(C)C)OC(=O)C[C@@H]1O` (stereo partly drawn), the GI50 is active: 0.387 µM.
Take `COc1cccc(-c2cc(=O)c3ccc(C)nc3[nH]2)c1`: the GI50 was active: 0.126 µM.
Consider `CC1C2Cc3ccc(O)cc3C1(C)CCN2C` (stereo not drawn), for which the GI50 is inactive: > 100 µM.
As for `Cn1c2ccccc2c2[nH]cc3nc4ccccc4c-3c21`, the GI50 was inactive: 17.9 µM.
